The results in this text go back to the supplement of paper PMC10037445.

Assay [1] concerns RAW-Dual. Nature of the assay: NF-kB SEAP reporter activity, fold change vs agonist alone; cytotoxicity flag (confluency mask): not cytotoxic; higher = enhanced NF-kB activity. The procedure, abridged:
(§1)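 Cytotoxic wells were those whose IncuCyte confluency was below 70% of agonist controls in both mask sets. The cells were RAW-Dual macrophages at 50,000 cells/well in DMEM on 384-well plates, dosed with 50 nL of library stock by pin tool, stimulated with a PRR agonist 1 h later, and kept at 37 °C, 5% CO2 for 20 hours. IRF and NF-κB reporter activity, as fold change over agonist-alone wells, came from supernatant read by QuantiLuc luminescence and QuantiBlue absorbance, respectively.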

Assay [2] deals with RAW-Dual. The assay is described as follows: NF-kB SEAP reporter activity, fold change vs agonist alone; higher = enhanced NF-kB activity. The procedure, abridged:
as §1

Assay [3] concerns RAW-Dual. Nature of the assay: NF-kB SEAP reporter activity, fold change vs agonist alone; cytotoxicity flag (confluency mask): cytotoxic (confluency <70% of control); higher = enhanced NF-kB activity. The procedure, abridged:
as §1

Where [4] appears, read: agonist: ODN 1826 (TLR9) 0.5 ug/mL.
Setting [5] is: agonist: Pam2CSK4 (TLR2/6) 0.1 ug/mL.
Where [6] appears, read: agonist: Pam3CSK4 (TLR2/1) 0.1 ug/mL.
Setting [7] is: library stock concentration (final ~1000-fold dilution): 10 mM, cytotoxicity flag (confluency mask): not cytotoxic, agonist: Imiquimod (TLR7) […].
[8] abbreviates: library stock concentration (final ~1000-fold dilution): 10 mM, cytotoxicity flag (confluency mask): not cytotoxic, agonist: MPLA (TLR4) […].
The mark [9] stands for this setting: library stock concentration (final ~1000-fold dilution): 10 mM, cytotoxicity flag (confluency mask): cytotoxic (confluency <70% of control), agonist: Imiquimod (TLR7) […].
Setting [10] is: library stock concentration (final ~1000-fold dilution): 10 mM, cytotoxicity flag (confluency mask): cytotoxic (confluency <70% of control), agonist: MPLA (TLR4) […].

The full ranking holds about 2,900 compounds; the median of “NF-kB SEAP reporter activity, fold change vs agonist alone” is about 0.99, and the highest 2% start at about 2.6. The list shows a part of the results.

As for `O=c1c(-n2ccnn2)c[nH]n1-c1cc(N2CCOCC2)ncn1` (library stock concentration (final ~1000-fold dilution): 2 mM), the “NF-kB SEAP reporter activity” value in assay [1] (agonist: LPS (TLR4) 0.1 ug/mL) is 1.12; in assay [1] (setting [4]) it was 0.909; in assay [1] (setting [5]), 0.869; in assay [1] (setting [6]), 0.836.
For `O=c1c(-n2ccnn2)c[nH]n1-c1cc(N2CCOCC2)ncn1`, the “NF-kB SEAP reporter activity” value in assay [2] (library stock concentration (final ~1000-fold dilution): 2 mM, cytotoxicity flag (confluency mask): not cytotoxic, agonist: Imiquimod (TLR7) […]) was 0.764; in assay [2] (library stock concentration (final ~1000-fold dilution): 2 mM, cytotoxicity flag (confluency mask): not cytotoxic, agonist: MPLA (TLR4) […]), 0.938.
In the case of `COc1cc(/C=C/CO)cc(OC)c1OC1OC(CO)C(O)C(O)C1O` (centres undefined), the “NF-kB SEAP reporter activity” value in assay [2] (setting [7]) was 1.03; in assay [2] (setting [8]), 1.08.
For the compound `COc1cc(/C=C/CO)cc(OC)c1OC1OC(CO)C(O)C(O)C1O` (centres undefined) (library stock concentration (final ~1000-fold dilution): 10 mM), the “NF-kB SEAP reporter activity” value is 1.08 in assay [1] (agonist: LPS (TLR4) 0.1 ug/mL), 1.01 in assay [1] (setting [4]), 1.11 in assay [1] (setting [5]) and 1.15 in assay [1] (setting [6]).
The like results for `Cc1cnc(-c2cc(N3CCN(C(=O)CCS(C)(=O)=O)CC3)ncc2Cl)c(C)c1` (library stock concentration (final ~1000-fold dilution): 10 mM) were, in that order, 1.41, 0.906, 1.12 and 1.17.
With `Cc1cnc(-c2cc(N3CCN(C(=O)CCS(C)(=O)=O)CC3)ncc2Cl)c(C)c1`, the “NF-kB SEAP reporter activity” value in assay [2] (setting [7]) amounted to 1.06; in assay [2] (setting [8]), 1.04.
For the compound `OCC1NCC(O)C(O)C1O` (centres undefined) (library stock concentration (final ~1000-fold dilution): 10 mM), the “NF-kB SEAP reporter activity” value turned out to be 0.778 in assay [1] (agonist: LPS (TLR4) 0.1 ug/mL), 0.78 in assay [1] (setting [4]), 0.788 in assay [1] (setting [5]) and 0.692 in assay [1] (setting [6]).
With `OCC1NCC(O)C(O)C1O` (centres undefined), the “NF-kB SEAP reporter activity” value in assay [2] (setting [7]) was determined as 0.542; in assay [2] (setting [8]), 0.814.
For `CCC(C)(Oc1ccc(C2(c3ccc(OC(C)(CC)C(=O)O)cc3)CCCCC2)cc1)C(=O)O` (centres undefined), the “NF-kB SEAP reporter activity” value in assay [2] (setting [7]) was determined as 0.648; in assay [2] (setting [8]), 0.731.
Take `CCC(C)(Oc1ccc(C2(c3ccc(OC(C)(CC)C(=O)O)cc3)CCCCC2)cc1)C(=O)O` (centres undefined) (library stock concentration (final ~1000-fold dilution): 10 mM): the “NF-kB SEAP reporter activity” value stood at 1.17 in assay [1] (agonist: LPS (TLR4) 0.1 ug/mL), 0.977 in assay [1] (setting [4]), 1.1 in assay [1] (setting [5]) and 1.03 in assay [1] (setting [6]).
Consider `CNc1cc(-c2cccc(Cl)c2Cl)nc(N)n1`, for which the “NF-kB SEAP reporter activity” value in assay [2] (setting [7]) came to 0.948; in assay [2] (setting [8]), 1.13.
With `CNc1cc(-c2cccc(Cl)c2Cl)nc(N)n1` (library stock concentration (final ~1000-fold dilution): 10 mM), the “NF-kB SEAP reporter activity” value in assay [1] (agonist: LPS (TLR4) 0.1 ug/mL) is 1.13; in assay [1] (setting [4]), 0.836; in assay [1] (setting [5]), 0.444; in assay [1] (setting [6]) it was 0.699.
The like results for `COc1cc2nccc(Oc3ccc(NC(=O)NC4CC4)c(Cl)c3)c2cc1C(N)=O` (library stock concentration (final ~1000-fold dilution): 10 mM) were, in that order, 0.678, 0.503, 0.417 and 0.484.
On to `COc1cc2nccc(Oc3ccc(NC(=O)NC4CC4)c(Cl)c3)c2cc1C(N)=O`, for which the “NF-kB SEAP reporter activity” value in assay [2] (setting [7]) was found to be 0.643; in assay [2] (setting [8]), 0.7.
Regarding `c1nc2c(NC3CCCCC3)nc(Nc3ccc(N4CCOCC4)cc3)nc2[nH]1` (library stock concentration (final ~1000-fold dilution): 10 mM), the “NF-kB SEAP reporter activity” value in assay [3] (agonist: LPS (TLR4) 0.1 ug/mL) turned out to be 0.369; in assay [3] (setting [4]), 0.24; in assay [3] (setting [5]), 0.102; in assay [3] (setting [6]) it was 0.138.
As to `c1nc2c(NC3CCCCC3)nc(Nc3ccc(N4CCOCC4)cc3)nc2[nH]1`, the “NF-kB SEAP reporter activity” value in assay [2] (setting [9]) was found to be 0.378; in assay [2] (setting [10]) it was 0.743.
As for `COc1nc(OCc2cccc(-c3ccccc3)c2C)ccc1CNCCNC(C)=O`, the “NF-kB SEAP reporter activity” value was determined as 1.47 in assay [2] (setting [9]) and 1.74 in assay [2] (setting [10]).
As to `COc1nc(OCc2cccc(-c3ccccc3)c2C)ccc1CNCCNC(C)=O` (library stock concentration (final ~1000-fold dilution): 10 mM), the “NF-kB SEAP reporter activity” value was 1.32 in assay [3] (agonist: LPS (TLR4) 0.1 ug/mL), 0.625 in assay [3] (setting [4]), 1.26 in assay [3] (setting [5]) and 0.793 in assay [3] (setting [6]).
